Measured values reported in paper PMC3829406, “Structure, Folding Dynamics, and Amyloidogenesis of D76N β2-Microglobulin” (The Journal of Biological Chemistry, 2013).

Target: the molecule itself
Assay: thioflavin T fluorescence of fibril formation + atomic force microscopy; 40 μM β2m, 25 mM sodium phosphate pH 7.4, 10 μM ThT, 37 °C, stirred, air-water interface present, no seeds; self-association into oligomers and amyloid fibrils

B1: D76N β2-microglobulin (natural protein)
chain: not shown
notes: β2-microglobulin, human, naturally occurring variant D76N; also called D76N variant; variant β2m
binding result: binds
